Experimental findings from paper PMC12733242, “The Functional Role of Gate Loop Residues in Arrestin Binding to GPCRs” (International Journal of Molecular Sciences, 2025) are described below.

In the test the target is T1, unphosphorylated light-activated bovine rhodopsin (bovine, UniProt P02699 1-348, light-activated).
T1 construct: rhodopsin, bovine, wild type, in native disk membranes; Native protein; source: purified bovine rhodopsin in native disk membranes, unphosphorylated
The experiment in a line: radioligand binding; direct binding assay: 1 nM [14C]leucine-labelled arrestin-1 (50 fmol) from cell-free translation incubated with 0.3 μg of P-Rh* or Rh* (7.8 pmol) in 50 mM Tris-HCl pH 7.4, 100 mM potassium acetate, 1 mM EDTA, 1 mM DTT, 5 min at 37 °C under room light; bound arrestin separated with rhodopsin-containing membranes by gel filtration on Sepharose CL-2B at 4 °C, scintillation counting; binding in …. The settings on record: one partner purified. In general terms: In gel filtration, larger molecules generally elute earlier.

T1 sequence (P02699 whole entry): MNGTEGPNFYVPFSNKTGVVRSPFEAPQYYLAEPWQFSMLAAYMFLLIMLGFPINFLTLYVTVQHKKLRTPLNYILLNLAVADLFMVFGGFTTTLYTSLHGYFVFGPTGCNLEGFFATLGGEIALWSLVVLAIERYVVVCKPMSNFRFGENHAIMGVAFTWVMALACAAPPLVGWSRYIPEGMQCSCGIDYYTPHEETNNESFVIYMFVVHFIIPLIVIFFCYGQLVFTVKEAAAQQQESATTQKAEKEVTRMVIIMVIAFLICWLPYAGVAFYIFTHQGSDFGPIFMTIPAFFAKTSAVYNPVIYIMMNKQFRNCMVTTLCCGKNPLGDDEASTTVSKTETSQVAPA

B1: bovine arrestin-1 Gly292Ala (natural protein)
chain: not shown
modifications: [14C]leucine incorporated
notes: arrestin-1, bovine; bovine residue numbers; source: cell-free translation, radiolabelled; translation mix after centrifugation
On to B1, for which the “increase of binding over WT” value was about 60%.
